Positions count from the first letter of the chain named.
B1: HEC-G134 (Fc fusion)
chain: YSEGTFTSDYSILLDKIAQQEFIEWLLAGGPSSGAPPPSGGGGSGGGGSGGGGSA[here human IgG4 Fc with S228P F234A L235A (EU numbers) without letters]
B2: HEC-G09 (Fc fusion)
chain: B1 chain with S2G, L13A, Q19A, Q20K, E21A, I23V, E24Q, L27I
B3: HEC-G01 (Fc fusion)
chain: B1 chain with S2A, L13Y, I17Q, Q19A, Q20K, I23V, E24N
B4: HEC-G11 (Fc fusion)
chain: B1 chain with S2G, L13A, I17Q, A18R, Q19A, Q20K, E21D, I23V, E24Q, L27I
B5: HEC-G22 (Fc fusion)
chain: B1 chain with S2G, L13Y, I17K, Q20R, E21D, I23V, L27V, A28K
B6: HEC-G06 (Fc fusion)
chain: B1 chain with S2G, L13Y, I17K, Q20R, E21D, I23V, G29Q
B7: HEC-G03 (Fc fusion)
chain: B1 chain with S2G, L13A, I17Q, Q19A, Q20K, I23V, E24N
B8: HEC-G24 (Fc fusion)
chain: B1 chain with S2G, L13A, I17K, Q20R, E21D, I23V, G29Q
B9: HEC-G135 (Fc fusion)
chain: B1 chain with L27I
B10: HEC-G21 (Fc fusion)
chain: B1 chain with S2G, L13Y, I17K, Q20R, E21D, I23V, L27K
B11: HEC-G137 (Fc fusion)
chain: B1 chain with I17K, E21D, L27I
B12: HEC-G29 (Fc fusion)
chain: B1 chain with S2G, L13Y, I17K, Q20R, E21D, E24Q, G29Q
B13: HEC-G25 (Fc fusion)
chain: B1 chain with S2G, L13A, I17K, Q20R, E21D, G29Q
B14: HEC-G10 (Fc fusion)
chain: B1 chain with S2G, L13A, I17Q, Q19A, Q20K, E21A, I23V, E24Q, L27I
B15: HEC-G136 (Fc fusion)
chain: B1 chain with I17K, E21D
B16: HEC-G07 (Fc fusion)
chain: B1 chain with S2G, L13A, Q20K, E21A, I23V, E24Q, L27I
B17: HEC-G02 (Fc fusion)
chain: B1 chain with S2G, L13Y, I17Q, Q19A, Q20K, I23V, E24N
B18: HEC-G28 (Fc fusion)
chain: B1 chain with S2G, L13Y, I17K, Q20R, E21D, I23V, E24Q, G29Q
B19: HEC-G20 (Fc fusion)
chain: B1 chain with S2G, L13Y, I17K, Q20R, E21D, I23V
B20: HEC-G08 (Fc fusion)
chain: B1 chain with S2G, L13Y, Q20K, E21A, I23V, E24Q, L27I
B21: HEC-G23 (Fc fusion)
chain: B1 chain with S2G, L13Y, I17K, Q20R, E21D, I23V, L27I

Experiments:
GLP-1R = GLP-1R (UniProt P43220); assay: cell-based or functional assay
GIPR = molecular target: T1, GIPR (UniProt P48546 22-466, limits assumed); assay: cell-based or functional assay
T1 sequence (looked up): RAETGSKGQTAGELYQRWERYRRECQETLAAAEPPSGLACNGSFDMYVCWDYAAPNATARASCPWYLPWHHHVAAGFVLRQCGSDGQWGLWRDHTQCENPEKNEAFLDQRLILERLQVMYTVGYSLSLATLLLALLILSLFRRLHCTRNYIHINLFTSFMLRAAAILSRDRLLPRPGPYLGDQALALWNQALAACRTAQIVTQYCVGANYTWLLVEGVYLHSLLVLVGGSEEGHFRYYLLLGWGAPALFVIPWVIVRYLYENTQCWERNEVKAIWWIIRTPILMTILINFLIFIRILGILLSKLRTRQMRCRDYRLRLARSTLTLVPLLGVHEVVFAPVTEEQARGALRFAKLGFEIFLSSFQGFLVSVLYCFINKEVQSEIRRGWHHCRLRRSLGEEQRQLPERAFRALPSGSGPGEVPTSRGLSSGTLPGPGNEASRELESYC

Binder | EC50, cAMP (GLP-1R) [nM] | EC50, cAMP (GIPR) [nM]
B1 | 16.3 | 0.004
B2 | 0.165 | 18.8
B3 | 0.582 | 10.2
B4 | 0.497 | 11.2
B5 | 0.165 | 2.58
B6 | 1.59 | 0.585
B7 | 4.05 | 2.42
B8 | 59.1 | 0.675
B9 | 1.27 | 0.033
B10 | 0.134 | 22.8
B11 | 0.357 | 0.021
B12 | 2.73 | 0.163
B13 | 3.75 | 0.134
B14 | 0.264 | 15.5
B15 | 8.22 | 0.018
B16 | 1.06 | 4.83
B17 | 0.451 | 16.1
B18 | 1.97 | 0.295
B19 | 0.262 | 0.197
B20 | 1.58 | 15.8
B21 | 0.054 | 0.301
